Source: PubChem BioAssay AID588591 (National Center for Advancing Translational Sciences (NCATS), 2011)
Among all 390,000 compounds or so, about 4,700 (1.2%) were called active. Not shown: some 4% with an inconclusive outcome. Calls come from the whole dose curve; as a rule, active = well fitted inhibition curve with a large enough effect; inconclusive = small, poorly fitted or top-dose-only effect, or another doubt; inactive = no such curve, though single readings can be large or run the other way. This is a selection; strong and weak results do not stand in their true shares.
% is set by controls: 0 for no effect and ±100 for the full control effect; potency is the fitted concentration of half-maximal effect.

Each molecule was assayed against DNA polymerase eta (Homo sapiens) (UniProt Q9Y253) (assay: qHTS for Inhibitors of Polymerase Eta). Conditions: recombinant Pol eta, fluorescent DNA replication assay; series mostly up to 114 µM; activity change, negative = inhibition: at the top concentration.
UniProt Q9Y253, sequence (Q9Y253 whole entry, looked up): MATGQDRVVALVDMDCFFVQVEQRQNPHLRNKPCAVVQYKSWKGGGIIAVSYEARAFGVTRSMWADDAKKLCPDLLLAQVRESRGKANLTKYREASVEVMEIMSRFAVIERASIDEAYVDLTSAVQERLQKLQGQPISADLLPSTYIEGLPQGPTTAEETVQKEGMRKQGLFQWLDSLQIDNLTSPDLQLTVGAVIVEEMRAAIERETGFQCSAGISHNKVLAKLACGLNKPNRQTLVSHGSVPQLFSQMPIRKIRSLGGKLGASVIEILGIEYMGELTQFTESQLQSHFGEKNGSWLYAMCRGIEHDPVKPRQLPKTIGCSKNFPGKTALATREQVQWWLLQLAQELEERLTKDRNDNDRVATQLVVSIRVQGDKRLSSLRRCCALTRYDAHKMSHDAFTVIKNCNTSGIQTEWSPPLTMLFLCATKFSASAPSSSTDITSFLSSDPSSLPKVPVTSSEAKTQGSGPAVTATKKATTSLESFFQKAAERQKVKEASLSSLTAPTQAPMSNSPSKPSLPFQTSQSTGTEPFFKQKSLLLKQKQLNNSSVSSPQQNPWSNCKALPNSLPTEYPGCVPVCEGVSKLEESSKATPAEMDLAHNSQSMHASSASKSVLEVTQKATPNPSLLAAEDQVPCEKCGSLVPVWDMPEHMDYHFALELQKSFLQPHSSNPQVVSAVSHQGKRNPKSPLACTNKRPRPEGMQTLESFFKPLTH
How it was run: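 Pol eta (10 nM) was preincubated with compounds for 15 min at room temperature, after which fluorescent replication substrate (50 nM final) was added to start the reaction. Fluorescence was read kinetically at 0 and 10 min.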
With `Cc1cc2nc3c(nc2cc1C)C(O)=C3O` the “activity change, negative = inhibition” value was inactive: 33.1%. With `CN(C)[C@@H]1C(=O)C(C(N)=O)=C(O)[C@@]2(O)C(=O)C3=C(O)c4c(O)ccc(Cl)c4[C@@H](O)[C@H]3C[C@@H]12` the “activity change, negative = inhibition” value was inactive: -5.65%. `COc1cc(NC(=O)c2ccc(C)cc2)ccc1NC(=O)c1cc2ccccc2o1` was tested, and the “activity change, negative = inhibition” value was inactive: -4.91%. With `C=CCN1C(=O)C(Cc2ccccc2Cl)SC1=Nc1ccc(C(=O)O)cc1` (stereo not drawn) the “activity change, negative = inhibition” value was inactive: 38.8%. `COc1cc(C(=O)O[C@H]2C/C(C)=C/CC[C@@]3(C)O[C@@H]3[C@H](O)[C@@H]2C(C)C)cc(OC)c1OC` was tested, and the “activity change, negative = inhibition” value was inactive: -17.1%. `Cc1ccc(N2C(=O)/C(=C/c3ccco3)SC2=S)cc1` was tested, and the “activity change, negative = inhibition” value was inactive: -23.3%. For `O=C(/C=C/c1ccccc1)NCCc1ccccc1`, the Potency was active: 20 µM. In the case of `C/C(N)=C(/C#N)C(=O)CSc1nnc(Cc2ccccc2F)n1N`, the “activity change, negative = inhibition” value is reported as inactive: 10.8%. In the case of `COc1ccc(N2Cc3cccc(C(=O)N4CCN(C(=O)c5ccco5)CC4)c3C2=O)cc1`, the Potency is reported as active: 5.62 µM. In the case of `CC(C)(C)C(=O)Nc1ccc(C(=O)NNC(=O)c2ccccc2)cc1`, the “activity change, negative = inhibition” value is reported as inactive: 15.6%. In the case of `NC(=O)c1ccsc1NC(=O)COC(=O)[C@@H]1CCCN1C(=O)c1cccs1`, the “activity change, negative = inhibition” value is reported as inactive: -18.4%. `COc1ccc(NC(=O)Nc2ccc(O)c3ccccc23)cc1` was tested, and the “activity change, negative = inhibition” value was inactive: 40.4%. `CCC(=O)Nc1ccc2nc3c(=O)[nH]c(=S)[nH]c3nc2c1` was tested, and the Potency was active: 17.8 µM. In the case of `Cc1nnc(N2CCCC(C(=O)Nc3cc(F)ccc3F)C2)c2nn(-c3ccccc3)c(C)c12` (stereo not drawn), the “activity change, negative = inhibition” value is reported as inactive: -7.46%. `O=C(Nc1ccccc1F)c1cc(-c2ccco2)nc2ccccc12` was tested, and the Potency was active: 79.4 µM. For `Cc1cc(=O)[nH]c(NCc2ccccc2)n1`, the “activity change, negative = inhibition” value was inactive: 36.2%. With `COc1ccc(-c2cn3cccnc3n2)cc1NC(=O)c1ccccc1C(F)(F)F` the “activity change, negative = inhibition” value was inactive: 17.1%. For `COc1ccc(S(=O)(=O)Cc2ccc(C(=O)N3CCN(c4cc(C)ccc4C)CC3)o2)cc1`, the “activity change, negative = inhibition” value was inactive: -14%. With `CCC(Oc1cc(Cl)ccc1Cl)C(=O)NN1C(=O)C2C3CCC(C3=C(C)C)C2C1=O` (stereo not drawn) the “activity change, negative = inhibition” value was inactive: 1.79%. With `C[C@@H]1O[C@@H](OC[C@H]2O[C@@H](Oc3c(-c4ccc(O)cc4)oc4cc(O)cc(O)c4c3=O)[C@H](O)[C@@H](O)[C@@H]2O)[C@H](O)[C@H](O)[C@H]1O` the “activity change, negative = inhibition” value was inactive: -18.3%. For `Oc1cc2c(c(Cl)c1O)CCNCC2c1ccccc1` (stereo not drawn), the “activity change, negative = inhibition” value was inactive: -6.57%. With `N#C/C(=C/C1=C(N2CCOCC2)C(=C/c2cccc([N+](=O)[O-])c2)/CC1)C(=O)Nc1ccccc1F` the “activity change, negative = inhibition” value was inactive: 89.5%. In the case of `Cc1ccc[n+](-c2nc([O-])sc2C=O)c1`, the Potency is reported as active: 22.4 µM. In the case of `O=C1NN(c2ccc(Cl)cc2)C(=O)/C1=C\c1ccc(-c2cccc(C(=O)O)c2)o1`, the Potency is reported as active: 4.47 µM. `O=C(NC1(O)C(=O)c2ccccc2C1=O)c1c(Cl)cccc1Cl` was tested, and the Potency was active: 44.7 µM. `O=S(=O)(Nc1cc(S(=O)(=O)N2CCCC2)ccc1O)c1ccc(Cl)s1` was tested, and the “activity change, negative = inhibition” value was inactive: 4.6%. In the case of `O=C(O)COc1ccccc1/C=C1\SC(=S)N(/N=C/c2ccccc2O)C1=O`, the Potency is reported as active: 22.4 µM. For `COC1=C/C(=C/c2c(N)n3nc(CC(=O)N4CCCCC4)sc3nc2=O)C=CC1=O`, the Potency was active: 50.1 µM. `Nc1c(C(=O)N/N=C/c2ccc([N+](=O)[O-])cc2)sc2nnc(-c3ccccc3)c(-c3ccccc3)c12` was tested, and the “activity change, negative = inhibition” value was inactive: 23.1%. `COC(=O)C1=C(N)Oc2cc(C)n(CCc3ccccc3)c(=O)c2C1c1cccnc1` (stereo not drawn) was tested, and the “activity change, negative = inhibition” value was inactive: -14.4%. For `CCOc1ccc(/C=C2\NC(=S)NC2=O)cc1`, the “activity change, negative = inhibition” value was inactive: 44.6%. For `Cc1oc2c(cc(NS(=O)(=O)c3ccc(C(C)C)cc3)c3ccccc32)c1C(=O)O`, the Potency was active: 44.7 µM. `CC(=O)Nc1ccc(/C=N/NC(=O)c2cc(-c3ccco3)nc3ccccc23)cc1` was tested, and the “activity change, negative = inhibition” value was inactive: 18%. In the case of `CCOC(=O)C(NC(C)=O)(Nc1ccc(S(=O)(=O)Nc2onc(C)c2C)cc1)C(F)(F)F` (stereo not drawn), the “activity change, negative = inhibition” value is reported as inactive: -7.52%. `CC(=O)N1CCc2cc(S(=O)(=O)N3CCOCC3)ccc21` was tested, and the “activity change, negative = inhibition” value was inactive: -13.5%. With `N#CC(=C(O)COC(=O)Cc1c[nH]c2ccccc12)c1nc2ccccc2[nH]1` the “activity change, negative = inhibition” value was inactive: -23.2%. For `COc1cccc(/C=C(\C#N)c2nc3ccccc3[nH]2)c1OCC(=O)O`, the “activity change, negative = inhibition” value was inactive: 15.1%. For `Cc1cc(C)cc(NC(=O)Cn2c(=O)n(C(C)C)c(=O)c3oc4ccccc4c32)c1`, the “activity change, negative = inhibition” value was inactive: 17.7%. For `CCc1cc(C(=O)Nc2ccc(S(=O)(=O)NC3=NCCCCC3)cc2)sc1C`, the Potency was active: 56.2 µM. For `CC(=O)N=c1c(C#N)cc2c(=O)n3cccc(C)c3nc2n1Cc1ccco1`, the Potency was active: 31.6 µM. With `OCC[C@@H]1C[C@H](O)[C@@H](O)[C@@]2(CCCc3ccccc3O2)O1` the “activity change, negative = inhibition” value was inactive: 0.879%. `Cc1ncc([N+](=O)[O-])n1Cc1ccc(Cl)cc1` was tested, and the “activity change, negative = inhibition” value was inactive: 31.2%. With `CCc1ccccc1NS(=O)(=O)c1ccc2[nH]cc(C(=O)NC3CCCC3)c(=O)c2c1` the “activity change, negative = inhibition” value was inactive: 3.42%. In the case of `O=C(N/N=C/C(Br)=C\c1ccccc1)c1n[nH]c2c1CCC2`, the “activity change, negative = inhibition” value is reported as inactive: -6.48%. In the case of `CC1CN(c2ccc([N+](=O)[O-])cc2Cl)CCN1S(C)(=O)=O` (stereo not drawn), the “activity change, negative = inhibition” value is reported as inactive: 35.7%. `Cc1ccccc1NC(=O)c1cn(-c2ccccc2)nc1-c1ccccc1` was tested, and the “activity change, negative = inhibition” value was inactive: -27.6%. In the case of `N#C/C(=C\c1ccc(O)c(O)c1)C(=O)N1CCc2ccccc21`, the Potency is reported as active: 39.8 µM. In the case of `Cc1[nH]c(=S)c(C#N)c(C)c1Cc1ccccc1`, the “activity change, negative = inhibition” value is reported as inactive: 20.9%.
